PubChem BioAssay AID1986 (Sanford-Burnham Center for Chemical Genomics, 2009)
Some of the results follow. The main result of the screen is listed elsewhere. These columns were measured beside it and carry no call.

Assay: inhibitors of HIV fusion peptide binding, primary screen, biochemical, uHTS, fluorescence dequenching (AID 1986)
Details: cell-free peptide binding, 30 min, measured here: repeat confirmation average inhibition, at 18.6 µM, stronger effect = higher value

Structure (SMILES) | inhibition [%]
NC(=O)Cn1cc(C=C2C(=O)NC(=O)NC2=O)c2ccccc21 | 190
O=C1NC(=S)N(c2ccc(F)cc2)C(=O)/C1=C\c1ccoc1 | 88.2
CCCCN1C(=O)/C(=C/C=C/c2ccco2)C(=O)NC1=S | 81.4
COC1C(OC(=O)c2ccc(C)[nH]2)C(O)C(Oc2ccc3c(O)c(NC(=O)c4ccc(O)c(CC=C(C)C)c4)c(=O)oc3c2Cl)OC1(C)C (stereo unspecified) | 65
O=c1oc2ccccc2c(O)c1C(c1ccc([N+](=O)[O-])cc1)c1c(O)c2ccccc2oc1=O | 77.3
O=C(N/N=C/c1c(O)n(C2CCCCC2)c(=S)[nH]c1=O)c1ccccc1O | 73.9
O=C1NC(=S)N(c2ccc(F)cc2)C(=O)/C1=C/c1ccco1 | 71.9
COc1ccc(OC)c(N2C(=O)/C(=C/c3ccco3)C(=O)NC2=S)c1 | 63.4
Cc1ccc(N2C(=O)/C(=C/c3ccc(CN(CCC#N)S(C)(=O)=O)o3)C(=O)NC2=S)cc1C | 66.4
COc1ccc(N2C(=O)/C(=C/c3ccco3)C(=O)NC2=S)cc1 | 67.1
O=C(O)c1cccc2c1NC(c1cccc([N+](=O)[O-])c1)C1CC(Sc3ccccc3[N+](=O)[O-])C(Cl)C21 (stereo unspecified) | 78.4
